Laboratory results: paper PMC12136788
This is one part of the list.

T1: UNK ZnF1-3 (human, UniProt Q9C0B0 31-174)
T1 sequence: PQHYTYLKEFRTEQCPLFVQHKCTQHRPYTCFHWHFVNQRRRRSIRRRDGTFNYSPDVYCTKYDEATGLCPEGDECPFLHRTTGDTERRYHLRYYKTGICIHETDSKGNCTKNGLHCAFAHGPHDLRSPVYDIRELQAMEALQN

B1: chrX:98480239:98480240:+_ENSMUSG00000079487_ENSMUST00000087948|mus_hu|FALSE|FALSE (ssRNA)
RNA: GGGAGUUCUACAGUCCGACGAUCAGCACAGCGAAUCAGAUCUUCCAGGAGCAAACACUGCCGAGCGAUGAGGAUGGCAACAAAAGUAGCCAGCGAGUCAUGAAAAGAUAGGUCACUGACAUCAACAUUGCAGAGGAGAUCGUUCAACAGAGGAUUGAGCAUCA
B2: chr5:33369694:33369695:+_ENSMUSG00000018965_ENSMUST00000019109|mus_mus|motif|central (ssRNA)
RNA: GGGAGUUCUACAGUCCGACGAUCGGAAUCCUCGUUUAAUGUGUCCAGCUCAGCUAUAGCAUCAUCGAAGGCUUGUUUGGCGGAGAGGCAGGCUUGCUCUGGUGCAUUCUGGAUCUCAUAGUAGAACACAGAAAAAUUGAGGGCCAACAGAGGAUUGAGCAUCA
B3: 108272540_108273305_2378_CDS_ENSG00000163507_ENST00000295746|human|control|control (ssRNA)
RNA: GGGAGUUCUACAGUCCGACGAUCUCUCUGUUCUUCUUUCUCUAUUAAUUGGGCAAUACUUUUUUCAUUUUGUUCCUUGAGUGACUCAUUCAACUUUUUCACUGUCUCAAUUUGUUUAUUCAGAGAAUCACAUGUGAUCUGUAACAACAGAGGAUUGAGCAUCA
B4: 64770575_64770695_352_CDS_ENSMUSG00000059920_ENSMUST00000076991|mouse|control|control (ssRNA)
RNA: GGGAGUUCUACAGUCCGACGAUCAGGCUGCACCAGGCGGUUGGUGACGGUGUCGCAAAGGGCCAUGAUCUCGUCGUUGUCCAGCAGGCCGAGUAGGUUUCGGCAGCCCUCCGACUCUAAGUGGCUGAGCCCCGACAUCUCGCCCAACAGAGGAUUGAGCAUCA
B5: chr10:17279241:17279242:+_ENSG00000026025_ENST00000224237|hu_mus|FALSE|FALSE (ssRNA)
RNA: GGGAGUUCUACAGUCCGACGAUCUUUUUAUUCAAGGUCAUCGUGAUGCUGAGAAGUCUCAUUGAUCACCUGUCCAUCUCUGGUCUCAACCGUCUUAAUCAGGAGUGUUCUUUUUGAGUGGGUGUCAACCAGAGGAAGUGACUCCAACAGAGGAUUGAGCAUCA
B6: chrX:53230792:53230793:-_ENSG00000126012_ENST00000404049|hu_mus|FALSE|FALSE (ssRNA)
RNA: GGGAGUUCUACAGUCCGACGAUCCAACAGAGCCUUUCGUAGACGCCGCUCCUCUUGCACCAUAAUGAACAUCUCCUUAUGUACAGCUGCUGCCAGGUUCAGGUCCAGUUUCUCAGGGCAGGCAGCCAUCUUGCAAAUGAGCUCCAACAGAGGAUUGAGCAUCA
B7: chr11:10818680:10818681:-_ENSG00000110321_ENST00000525681|hu_mus|FALSE|FALSE (ssRNA)
RNA: GGGAGUUCUACAGUCCGACGAUCUAUAUAAAAUCAGGGCAUGAACAUGACUUGAUAAAUUAAGUAGACUUAAUUUCAAUACUAUAAUAAGAGGGACCAAUUCAAAUUCUCACCAUUUGUUUCACACCCACAAAAACCACUUCACAACAGAGGAUUGAGCAUCA
B8: chr8:74858975:74858976:-_ENSG00000154582_ENST00000284811|hu_mus|hu_hu_hu_mus_True|68_88 (ssRNA)
RNA: GGGAGUUCUACAGUCCGACGAUCGACCUUGUAGGUAAAAUACAUGCAUACUUUCGAUAGCACAUGUGAAGGUAUCUCUCUAAAAUUGACCUCGUUGGUUUCAUUCUCAGCAAACUGACCUGGACCACUCAACAUAGCCUUUAUCAACAGAGGAUUGAGCAUCA
B9: chr8:104447970:104447971:+_ENSG00000164934_ENST00000297579|hu_hu|hu_hu_hu_mus_False|8_48 (ssRNA)
RNA: GGGAGUUCUACAGUCCGACGAUCAUACACUUCCCUGCUUCGGCUCUUGUCCACAGGAAAGAUUCUAAUAGACUUAUCAAAGCUGGCAGACACAAACUCCUUCCCAGUGGGAGAGUAGUCCACAUCAAGCACUGCAGACACGUGCAACAGAGGAUUGAGCAUCA
B10: chr8:77776764:77776765:+_ENSG00000091656_ENST00000521891|hu_hu|motif|central (ssRNA)
RNA: GGGAGUUCUACAGUCCGACGAUCUUUAAGCACGGGAUCCUGUCUUCACUCCUACACACUGAACAUAUCCAUUCGGAUGCGGUUGAAAUUACCAUCUAGGCCAGAAGCAGGCUUAGCCUUCACUUCCAAAGAAUUAUCUAAGUCCAACAGAGGAUUGAGCAUCA
B11: 46808375_46808495_1150_3pUTR_ENSG00000119729_ENST00000238738|human|control|control (ssRNA)
RNA: GGGAGUUCUACAGUCCGACGAUCAUUGUAGCUUUUUAAACUAUGAAACCCCUGAGAGAUUGUACCUUCUAGUUGAAAUAAAGUAUUUAUAAUAGAUUGUGGCUUCAGAUGCUGCUUACUGCUUCUUAAACCUUUAAGGAACAUCAACAGAGGAUUGAGCAUCA
B12: chr2:47388980:47388981:-_ENSG00000143933_ENST00000272298|hu_mus|hu_hu_hu_mus_True|68_68 (ssRNA)
RNA: GGGAGUUCUACAGUCCGACGAUCUUCAUCUGUUAACUUCUCGCCAAGGUUUGUCAUCACAUGGCGAAGUUCUGCAGCACUAAUAUAGCCAUUGCCAUCCUUAUCAAACACACGGAAUGCUUCUCUAAUCUCUUCUUCACUGUCCAACAGAGGAUUGAGCAUCA
B13: chr1:163112212:163112213:-_ENSG00000143248_ENST00000313961|hu_hu|hu_hu_hu_mus_False|1_28 (ssRNA)
RNA: GGGAGUUCUACAGUCCGACGAUCUUUUAUUAUCAGUAAGAGUGAGUUACAUACUAGGCAAAGUAUUGGAUACAAUAAUCAGGAAACAAACACUAUUGGUCCAGAAUUUAAAAUAUAAUGAGCGAAGUGCUGGCACAGGAUUUACAACAGAGGAUUGAGCAUCA
B14: 98547442_98547784_4317_CDS_ENSG00000196367_ENST00000456197|human|control|control (ssRNA)
RNA: GGGAGUUCUACAGUCCGACGAUCCCUCCAUAUACUCUUUUAAGAAUGUCAUGUUGCAGAGAAAACGACCAGUAAAGGCUCGGAGCAGCUGGAACAGCAAUUCUAUAUCUCCGUAAUUCCUUUUGCAGUAGUUCAGCAGGCAGUCAACAGAGGAUUGAGCAUCA
B15: chr4:17845017:17845018:+_ENSG00000109805_ENST00000514176|hu_mus|hu_hu_hu_mus_False|38_68 (ssRNA)
RNA: GGGAGUUCUACAGUCCGACGAUCGCUCUCUUAACUUGUAUCUUCAUUAAGGAACUCUGCAAGGUUAGUUUACUUUUUCUGUAGCGCAGCUGUUUUGCUCGUCUUGGGUAAUCUCAUCUUCAUUUCUGAUGGUGGUUCAUGAUCCAACAGAGGAUUGAGCAUCA
B16: chr11:79222206:79222207:+_ENSMUSG00000020716_ENSMUST00000071325|mus_mus|motif|central (ssRNA)
RNA: GGGAGUUCUACAGUCCGACGAUCCUUUGUAAAUUCAUCCGGAUAAUUUUCUACCCAGUUCCAAAAAGCCUUUUCGGGGCGGUUUAUAACUGCCAACUGUGCAACCUUCUUCAGGGCUUUAAAUUUAAAUGCUGUUUCCUUCAGCAACAGAGGAUUGAGCAUCA
B17: chr15:31432613:31432614:-_ENSMUSG00000039100_ENSMUST00000090227|mus_mus|motif|central (ssRNA)
RNA: GGGAGUUCUACAGUCCGACGAUCAUAAAUUGGUGUGAAAGCAAAUCUGUGCUUGCAUAAUUCACAGUAUUCUUUCCGACGGUGUUUCAACCACUGAACUAAGCAUUCUUGAUGAAUAAAUUUAAUACUGCCAGUACAUACACACAACAGAGGAUUGAGCAUCA
B18: chr17:30678820:30678821:+_ENSG00000010244_ENST00000394673|hu_hu|motif|central (ssRNA)
RNA: GGGAGUUCUACAGUCCGACGAUCAUUUAAAAUGCUUUGCUUUUUGGUGCUGAAUAAGGAUCUUCUCAUCAUCAAAAUCUCGGUUACAAUACCAGCACCACGGCUUCAGCUGCUUCUUCUUCUUGCGACCCAUAACUGUGUUCUCAACAGAGGAUUGAGCAUCA
B19: chr4:25749455:25749456:-_ENSG00000091490_ENST00000264868|hu_hu|hu_hu_hu_mus_False|18_98 (ssRNA)
RNA: GGGAGUUCUACAGUCCGACGAUCGCACUAUGACCUCCCCUAGAAAACACAGGGGGAAAAAAUGUAAACCAAUGUACAAUGUUAUCGCCUUCCCUGUGUGUGGAGUGUUUGUCUCAAUAUUUCAAGGAGCUGCUGGAUUUGGGACAACAGAGGAUUGAGCAUCA
B20: chr2:47387770:47387771:-_ENSG00000143933_ENST00000272298|hu_mus|hu_hu_hu_mus_True|18_108 (ssRNA)
RNA: GGGAGUUCUACAGUCCGACGAUCAAGGUUUUAGGACAAUGACAGUAAGAUAAGGGAAGAAAACAUGGAGGAAUGAAGUCCUAAUUACUAUACAUGCAUAUUUUUUGACAGUAGGGGAGAAACCUUUUUUACAGAUAAGUUACACAACAGAGGAUUGAGCAUCA
B21: chr1:180971808:180971809:-_ENSG00000135823_ENST00000258301|hu_hu|motif|central (ssRNA)
RNA: GGGAGUUCUACAGUCCGACGAUCUUUUCUUAUACUCAAUUCAGUUGCAUCAAGGUUAAAUUUUCUAGGAUUUGCUUCAACGGUGCUGAUGGUUUCAUCAAGGUCCUCUAGAUCCCACUCUAUGCUCCGGAGGUUAUUUCUCAGCAACAGAGGAUUGAGCAUCA
B22: chr7:141438946:141438947:+_ENSG00000106028_ENST00000265304|hu_mus|hu_hu_hu_mus_True|38_88 (ssRNA)
RNA: GGGAGUUCUACAGUCCGACGAUCGACGAAAUACCUGUAACACAGGUGAAACAUGGCUGGCUUCUGUUUUUCUUACAACCUAAUCUUUAGGCUUUUCCUGACGAUCUGAAAGAAAAGAGAAAAAUGAUAAAUCAAGAAACUACACAACAGAGGAUUGAGCAUCA

Each binder was assayed against T1, UNK ZnF1-3 (assay: nsRBNS (natural sequence RNA bind-n-seq); RBNS binding buffer (assumed for nsRBNS): 25 mM Tris pH 7.5, 150 mM KCl, 3 mM MgCl2, 0.01% Triton X-100, 500 ug/ml BSA, 20 U/ml SUPERase-In, 4 C; UNK is unkempt and MSI1 is Musashi-1; names of the RNAs are library labels; protein concentration not given here; high values mean tight binding).
B1 showed a binding signal of 1.52 enrichment R.
With B2 the binding signal was 1.31 enrichment R.
B3 gave a binding signal of 0.34 enrichment R.
With B4 the binding signal was 0.865 enrichment R.
Work on B5 yielded a binding signal of 0.521 enrichment R.
B6 was tested, and the binding signal was 1.07 enrichment R.
B7 was tested, and the binding signal was 2.06 enrichment R.
B8 showed a binding signal of 0.85 enrichment R.
For B9, the binding signal was 1.09 enrichment R.
B10 was tested, and the binding signal was 0.769 enrichment R.
Binder B11 has a binding signal of 1.24 enrichment R.
For B12, the binding signal was 0.838 enrichment R.
Work on B13 yielded a binding signal of 1.82 enrichment R.
B14 was tested, and the binding signal was 1.23 enrichment R.
For B15, the binding signal was 0.316 enrichment R.
B16 gave a binding signal of 0.828 enrichment R.
B17 showed a binding signal of 1.25 enrichment R.
Work on B18 yielded a binding signal of 0.535 enrichment R.
B19 gave a binding signal of 1.43 enrichment R.
For B20, the binding signal was 1.67 enrichment R.
B21 showed a binding signal of 0.542 enrichment R.
Work on B22 yielded a binding signal of 0.983 enrichment R.
